# Measured values taken from PubChem BioAssay AID1030 (National Center for Advancing Translational Sciences (NCATS), 2008).
# About 16,000 (7.3%) of roughly 220,000 compounds were called active. Inconclusive results, whose numbers are uncertain, are shown with a selection of clear calls. The call rests on the fitted dose curve; in most records, active means well fitted inhibition curve with a large enough effect (not every such curve was filed as active); inconclusive means small, poorly fitted or top-dose-only effect, or another doubt; inactive means no such curve, though single readings can be large or run the other way. Potencies of inconclusive entries are left out as doubtful fits.
# Target: Aldehyde dehydrogenase 1A1 (Homo sapiens) (UniProt P00352)
# Assay: qHTS Assay for Inhibitors of Aldehyde Dehydrogenase 1 (ALDH1A1)
# Conditions: Purified ALDH1A1, NADH fluorescence, propionaldehyde substrate; series mostly up to 75.3 µM
# Potency means the concentration at half of the fitted maximal effect; tags describe the fitted curve by direction and shape.
# Sequence of UniProt P00352 (P00352 whole entry, looked up): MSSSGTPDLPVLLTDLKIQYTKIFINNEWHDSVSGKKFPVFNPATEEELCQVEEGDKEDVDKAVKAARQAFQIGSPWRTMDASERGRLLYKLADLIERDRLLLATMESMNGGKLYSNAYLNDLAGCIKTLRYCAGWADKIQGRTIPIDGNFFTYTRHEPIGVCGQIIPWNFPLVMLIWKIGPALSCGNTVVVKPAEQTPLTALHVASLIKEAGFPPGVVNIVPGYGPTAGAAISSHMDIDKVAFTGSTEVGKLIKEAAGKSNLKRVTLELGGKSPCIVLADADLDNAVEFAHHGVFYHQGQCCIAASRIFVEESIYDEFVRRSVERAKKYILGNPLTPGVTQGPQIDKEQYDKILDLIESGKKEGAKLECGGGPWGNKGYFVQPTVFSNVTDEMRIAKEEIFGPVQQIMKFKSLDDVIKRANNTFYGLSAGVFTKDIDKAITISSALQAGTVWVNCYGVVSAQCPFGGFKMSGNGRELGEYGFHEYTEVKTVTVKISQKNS
row,SMILES,Potency
1,O=C(/C=C/c1cccc([N+](=O)[O-])c1)NCc1ccco1,"inconclusive [inhibitor, partial curve]"
2,CNC(=S)N(Cc1ccco1)Cc1cc2cc3c(cc2[nH]c1=O)OCCO3,"inconclusive [inhibitor, single point]"
3,CC1CCC(C(C)C)C2=C1C(C#N)(C#N)C(C#N)(C#N)C(c1ccccc1)N2 (centres undefined),active: 10 µM
4,Cc1ccc(C2(CCNS(=O)(=O)c3ccc(C)cc3)CCOC(C(C)C)C2)cc1 (centres undefined),"inconclusive [inhibitor, single point]"
5,C=C(C)C1CC=C(C)/C(=N/NC(=O)COc2ccccc2Cl)C1 (centres undefined),"inconclusive [inhibitor, partial curve]"
6,CN=c1scc(-c2cccs2)n1/N=C/c1ccccc1O,inactive
7,O=C(CSc1ccccn1)c1ccc2c(c1)OCO2,inactive
8,COc1ccc(NC(=O)c2ccc3c(SCC(=O)O)c4c(nc3c2)CCCC4)cc1Cl,"inconclusive [inhibitor, partial curve]"
9,Cc1ccc(C(=O)O)cc1NC(=S)NC(=O)c1ccc([N+](=O)[O-])c(C)c1,"inconclusive [inhibitor, single point]"
10,O=C(O)CCCC(=O)Nc1ccc(N=Nc2ccccc2)cc1,inactive
11,Cc1ccc(N=C2SC(C(=O)Nc3ccc(OC(F)(F)F)cc3)C(N)=C2C(=O)Nc2c(C)cc(C)cc2C)cc1 (centres undefined),"inconclusive [inhibitor, single point]"
12,O=C1c2ccccc2C(=O)N1CCCSc1nc2ccccc2o1,"inconclusive [inhibitor, partial curve]"
13,O=C(CSc1nnc(CN2CCOCC2)n1-c1ccccc1)Nc1ccc(Cl)cc1,active: 22.4 µM
14,Nc1cc(Cl)ccc1C(=O)OCC(=O)NC(=O)NCc1ccccc1,"inconclusive [inhibitor, single point]"
15,NNC(=O)c1cc(Br)cs1,"inconclusive [inhibitor, partial curve]"
16,CC(C)(C)OC(=O)NC(CO)c1cn([C@@H](Cc2cc3ccccc3[nH]2)C(=O)N2CCN(C(=O)OC(C)(C)C)CC2)nn1 (some centres undefined),inactive
17,COc1cc(/C=N/N=C(/C(=O)c2ccccc2)c2ccccc2)cc(OC)c1O,"inconclusive [inhibitor, single point]"
18,COc1ccc(S(=O)(=O)N2CCC(CN3C(=O)c4cccc5cccc(c45)C3=O)CC2)cc1,"inconclusive [inhibitor, partial curve]"
19,CCn1cc(CNC(=O)c2cc(-c3cc(OC)ccc3OC)nc3ccccc23)c(C)n1,inactive
20,COc1ccc(/C=C/C(=O)Nc2cc(F)ccc2C)cc1S(=O)(=O)N1CCOCC1,"inconclusive [inhibitor, single point]"
21,COC(=O)Cn1c2[n+](c3ccccc31)CC(O)CS2 (centres undefined),inactive
22,Cc1cccc(C)c1NC(=O)CSCC(=O)c1ccc(O)c(O)c1,inactive
23,CCCC(C)C(=O)Nc1ccc(S(=O)(=O)Nc2nccs2)cc1 (centres undefined),"inconclusive [inhibitor, single point]"
24,COC(=O)c1ccccc1NC(=S)N(Cc1ccc2c(c1)OCO2)Cc1cc2ccc(OC)cc2[nH]c1=O,"inconclusive [inhibitor, partial curve]"
25,CCc1[nH]nc2c1C1(CCN(C(=O)OCc3ccccc3)CC1)C(C#N)=C(N)O2,"inconclusive [inhibitor, full curve]"

row,SMILES,Potency
1,O=C(NC1CCCc2ccccc21)c1cccc(S(=O)(=O)N2CCOCC2)c1 (centres undefined),"inconclusive [inhibitor, single point]"
2,CN(C)C(=O)c1cn(-c2ccccc2)nc1-c1cc2ccccc2oc1=O,"inconclusive [inhibitor, partial curve]"
3,CN(C)S(=O)(=O)c1ccc(NC(=O)CN2CCCc3ccccc32)cc1,active: 17.8 µM
4,CCN(CC)S(=O)(=O)c1ccc(C(=O)NCc2n[nH]c(=S)n2-c2ccccc2OC)cc1,"inconclusive [inhibitor, single point]"
5,COc1ccc(NS(=O)(=O)c2ccc(SC)cc2)c(OC)c1,active: 8.91 µM
6,CC1CCN(C(c2ccc(N(C)C)cc2)c2nnnn2Cc2ccccc2)CC1 (centres undefined),active: 8.91 µM
7,CCCCn1nc2cc(C(=O)NCCc3cccs3)ccc2c1OCC,"inconclusive [inhibitor, single point]"
8,O=C(O)c1cc(Br)ccc1NN=C1CCCCC1,"inconclusive [inhibitor, single point]"
9,O=C(O)c1cc2cc(Cl)ccc2oc1=O,"inconclusive [inhibitor, single point]"
10,Cc1cc(C)c2c(N=NN3CCOCC3)[nH]nc2n1,"inconclusive [inhibitor, single point]"
11,CO/N=C/c1ccc(N2CCOCC2)c([N+](=O)[O-])c1,"inconclusive [inhibitor, single point]"
12,CCC(C(=O)NCc1ccc(F)cc1)N(Cc1ccco1)C(=O)c1snc(C(N)=O)c1N (centres undefined),"inconclusive [inhibitor, single point]"
13,COC(=O)c1sc(SC)c(S(=O)(=O)C(C)C)c1N/N=C(\C#N)S(=O)(=O)c1ccccn1,inactive
14,O=C(NNC(=S)Nc1ccccc1)Nc1ccccc1,active: 14.1 µM
15,COc1ccc(N2CSC3=C(C#N)C(c4cccs4)CC(=O)N3C2)cc1 (centres undefined),active: 2 µM
16,CCCCn1c(CN2CCN(c3cccc(Cl)c3)CC2)nc2c1c(=O)[nH]c(=O)n2C,"inconclusive [inhibitor, single point]"
17,C=CCNc1sc(C(=O)c2cccs2)c(N)c1C#N,"inconclusive [inhibitor, partial curve]"
18,CCOC(=O)C1=C(C)OC(N)=C(C#N)C1c1ccc(OC)c(CSc2ccccn2)c1 (centres undefined),"inconclusive [inhibitor, single point]"
19,NC(=O)c1cc(N2C(=O)C=CC2=O)ccc1Cl,active: 0.794 µM
20,CCOC(=O)Cc1csc(NC(=O)CC)n1,inactive
21,COc1ccccc1NC(=O)/C(C#N)=C/c1c(C)nn(-c2ccc(F)cc2)c1Cl,inactive
22,COc1ccc(-c2c(C)n([O-])c3c([n+]2=O)CCCC3)c(OC)c1,inactive
23,Cn1nc(C(=O)OCCN2C(=O)c3ccccc3C2=O)c2ccccc2c1=O,inactive
24,Cc1onc(-c2ccccc2)c1CNS(=O)(=O)c1ccccc1[N+](=O)[O-],active: 12.6 µM
25,COC(=O)c1sc(NC(=S)NC(=O)c2ccccc2C)nc1C,inactive

row,SMILES,Potency
1,COc1ccc(-c2csc(C3=C(O)CN(CCCN4CCCC4=O)C3=N)n2)cc1OC,"inconclusive [inhibitor, single point]"
2,O=C(COc1cccc2c1CCN(Cc1ccccc1F)C2=O)N1CCOCC1,"inconclusive [inhibitor, single point]"
3,Cc1ccc(-n2c(SCC(=O)NCc3ccco3)nc3sc4c(c3c2=O)CC(C)(C)SC4)cc1,"inconclusive [inhibitor, single point]"
4,CC(=O)Nc1ccc(S(=O)(=O)NNC(=O)c2cccc3ccccc23)cc1,inactive
5,COCCCNC(=S)NNC(=S)Nc1ccccc1,active: 17.8 µM
6,CCOC(=O)C1CCN(S(=O)(=O)c2cc(F)ccc2OC)CC1,inactive
7,CCc1ccc(NC(=O)CCc2nc3ccccc3[nH]2)cc1,inactive
8,O=C(CN1CCN(c2ncc(C(F)(F)F)cc2Cl)CC1)Nc1ccc2c(c1)OCO2,"inconclusive [inhibitor, single point]"
9,CCOc1ccc(NC(=O)CC2C(=O)N(C)C(=S)N2Cc2ccco2)cc1 (centres undefined),"inconclusive [inhibitor, single point]"
10,NS(=O)(=O)c1ccc(NC(=S)NCc2ccccc2Cl)cc1,active: 25.1 µM
11,CCOC(=O)C1(Cc2ccccc2Cl)CCN(S(=O)(=O)N(C)C)CC1,active: 8.91 µM
12,CC(C)(C)c1ccc(OCCNC(=S)NC(=O)c2cccnc2)cc1,"inconclusive [inhibitor, single point]"
13,Nc1nc(CN2CCN(c3ccc(F)cc3)CC2)nc(N2CCCc3ccccc32)n1,"inconclusive [inhibitor, single point]"
14,COC(=O)c1cc(=O)n(-c2c(Cl)cc(C(F)(F)F)cc2Cl)[nH]1,inactive
15,Clc1ccc2nnc(Cl)n2n1,"inconclusive [inhibitor, single point]"
16,c1ccc2c(-c3[nH]ncc3CNCCCn3ncc4ccccc43)cccc2c1,"inconclusive [inhibitor, partial curve]"
17,CNCC(O)Cn1c2c(c3ccccc31)CCCC2 (centres undefined),"inconclusive [inhibitor, single point]"
18,OCCC1CN(Cc2cc3c(cc2Cl)OCO3)CCN1Cc1ccccc1 (centres undefined),inactive
19,CCCCOC(=O)C(C)Sc1n[nH]c(=O)[nH]c1=O (centres undefined),inactive
20,CC(=O)c1cc2cc(O)ccc2o1,"inconclusive [inhibitor, partial curve]"
21,CCc1nnc(NCn2nc(C)cc2C)s1,"inconclusive [inhibitor, single point]"
22,COc1ccc(C2C=C(c3ccc(C)cc3)Nc3ncnn32)cc1 (centres undefined),"inconclusive [inhibitor, partial curve]"
23,CC(C)(C)NC(=O)C12CC3CC(CC(Cl)(C3)C1)C2,inactive
24,COc1cccc(/C=C2\SC(=S)NC2=O)c1OS(=O)(=O)c1ccc(NC(C)=O)cc1,"inconclusive [inhibitor, single point]"
